Results reported in the supplement of paper PMC8728848.
The other results are listed elsewhere or left out.

Columns and labels:
Test in all cases: glycan array binding signal (z-score within array); higher = stronger binding
Conditions in all cases: glycan notation: IUPAC condensed, linker removed
[1] = target: Gal(b1-3)Gal(b1-4)GlcNAc
Outline: (§1)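 The Consortium for Functional Glycomics database supplied 3228 glycan arrays, of which those lacking an available protein sequence were dropped. The binding signal, a within-array Z-score, was averaged across arrays of the same protein sequence and across linkers. Negative scores can be read as non-binding.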

[2] = target: Gal(b1-3)Gal(b1-4)GlcNAc(b1-2)Man(a1-3)[Gal(b1-3)Gal(b1-4)GlcNAc(b1-2)Man(a1-6)]Man(b1-4)GlcNAc(b1-4)GlcNAc
Outline: as §1

[3] = target: Gal(b1-3)GalNAc
Outline: as §1

[4] = target: Gal(b1-3)GalNAc(a1-3)[Fuc(a1-2)]Gal(b1-4)Glc
Outline: as §1

[5] = target: Gal(b1-3)GalNAc(a1-3)[Fuc(a1-2)]Gal(b1-4)GlcNAc
Outline: as §1

[6] = target: Gal(b1-3)GalNAc(b1-3)Gal(a1-4)Gal(b1-4)Glc
Outline: as §1

[7] = target: Gal(b1-3)GalNAc(b1-4)Gal(b1-4)Glc
Outline: as §1

[8] = target: Gal(b1-3)GalNAc(b1-4)[Neu5Ac(a2-3)]Gal(b1-4)Glc
Outline: as §1

[9] = target: Gal(b1-3)GlcNAc
Outline: as §1

[10] = target: Gal(b1-3)GlcNAc(b1-2)Man(a1-3)[Gal(b1-3)GlcNAc(b1-2)Man(a1-6)]Man(b1-4)GlcNAc(b1-4)GlcNAc
Outline: as §1

[11] = target: Gal(b1-3)GlcNAc(b1-2)Man(a1-3)[Gal(b1-3)GlcNAc(b1-2)Man(a1-6)]Man(b1-4)GlcNAc(b1-4)[Fuc(a1-6)]GlcNAc
Outline: as §1

[12] = target: Gal(b1-3)GlcNAc(b1-3)Gal(b1-3)GlcNAc
Outline: as §1

[13] = target: Gal(b1-3)GlcNAc(b1-3)Gal(b1-4)Glc
Outline: as §1

[14] = target: Gal(b1-3)GlcNAc(b1-3)Gal(b1-4)GlcNAc
Outline: as §1

[15] = target: Gal(b1-3)[Fuc(a1-4)]GlcNAc
Outline: as §1

[16] = target: Gal(b1-3)[Fuc(a1-4)]GlcNAc(b1-2)Man(a1-3)[Gal(b1-3)[Fuc(a1-4)]GlcNAc(b1-2)Man(a1-6)]Man(b1-4)GlcNAc(b1-4)GlcNAc
Outline: as §1

[17] = target: Gal(b1-3)[Fuc(a1-4)]GlcNAc(b1-2)Man(a1-3)[Gal(b1-3)[Fuc(a1-4)]GlcNAc(b1-2)Man(a1-6)]Man(b1-4)GlcNAc(b1-4)[Fuc(a1-6)]GlcNAc
Outline: as §1

[18] = target: Gal(b1-3)[Fuc(a1-4)]GlcNAc(b1-3)Gal(b1-3)[Fuc(a1-4)]GlcNAc
Outline: as §1

[19] = target: Gal(b1-3)[Fuc(a1-4)]GlcNAc(b1-3)Gal(b1-4)GlcNAc
Outline: as §1

[20] = target: Gal(b1-3)[Fuc(a1-4)]GlcNAc(b1-3)Gal(b1-4)[Fuc(a1-3)]GlcNAc
Outline: as §1

[21] = target: Gal(b1-3)[GlcNAc(b1-6)]GalNAc
Outline: as §1

[22] = target: Gal(b1-3)[Neu5Ac(a2-6)]GalNAc
Outline: as §1

[23] = target: Gal(b1-3)[Neu5Ac(a2-6)]GlcNAc(b1-6)Gal(b1-4)Glc
Outline: as §1

[24] = target: Gal(b1-3)[Neu5Ac(b2-6)]GalNAc
Outline: as §1

[25] = target: Gal(b1-4)GalNAc(a1-3)[Fuc(a1-2)]Gal(b1-4)GlcNAc
Outline: as §1

[26] = target: Gal(b1-4)GalNAc(b1-3)[Fuc(a1-2)]Gal(b1-4)GlcNAc
Outline: as §1

[27] = target: Gal(b1-4)Glc
Outline: as §1

[28] = target: Gal(b1-4)Glc6S
Outline: as §1

[29] = target: Gal(b1-4)GlcNAc
Outline: as §1

[30] = target: Gal(b1-4)GlcNAc(a1-6)Gal(b1-4)GlcNAc
Outline: as §1

[31] = target: Gal(b1-4)GlcNAc(b1-2)Man(a1-3)Man(b1-4)GlcNAc(b1-4)GlcNAc
Outline: as §1

[32] = target: Gal(b1-4)GlcNAc(b1-2)Man(a1-3)[Gal(b1-4)GlcNAc(b1-2)Man(a1-6)]Man(b1-4)GlcNAc(b1-4)GlcNAc
Outline: as §1

[33] = target: Gal(b1-4)GlcNAc(b1-2)Man(a1-3)[Gal(b1-4)GlcNAc(b1-2)Man(a1-6)]Man(b1-4)GlcNAc(b1-4)[Fuc(a1-6)]GlcNAc
Outline: as §1

[34] = target: Gal(b1-4)GlcNAc(b1-2)Man(a1-3)[Man(a1-6)]Man(b1-4)GlcNAc(b1-4)GlcNAc
Outline: as §1

[35] = target: Gal(b1-4)GlcNAc(b1-2)Man(a1-6)Man(b1-4)GlcNAc(b1-4)GlcNAc
Outline: as §1

[36] = target: Gal(b1-4)GlcNAc(b1-2)Man(a1-6)[Man(a1-3)]Man(b1-4)GlcNAc(b1-4)GlcNAc
Outline: as §1

[37] = target: Gal(b1-4)GlcNAc(b1-2)[Gal(b1-4)GlcNAc(b1-4)]Man(a1-3)[Gal(b1-4)GlcNAc(b1-2)Man(a1-6)]Man(b1-4)GlcNAc(b1-4)GlcNAc
Outline: as §1

[38] = target: Gal(b1-4)GlcNAc(b1-3)Gal(b1-3)GlcNAc
Outline: as §1

[39] = target: Gal(b1-4)GlcNAc(b1-3)Gal(b1-4)Glc
Outline: as §1

[40] = target: Gal(b1-4)GlcNAc(b1-3)Gal(b1-4)GlcNAc
Outline: as §1

[41] = target: Gal(b1-4)GlcNAc(b1-3)Gal(b1-4)GlcNAc(b1-3)Gal(b1-4)GlcNAc
Outline: as §1

[42] = target: Gal(b1-4)GlcNAc(b1-3)Gal(b1-4)[Fuc(a1-3)]GlcNAc(b1-3)Gal(b1-4)[Fuc(a1-3)]GlcNAc
Outline: as §1

[43] = target: Gal(b1-4)GlcNAc(b1-3)GalNAc
Outline: as §1

[44] = target: Gal(b1-4)GlcNAc(b1-3)[Gal(b1-4)GlcNAc(b1-6)]Gal(b1-4)GlcNAc
Outline: as §1

[45] = target: Gal(b1-4)GlcNAc(b1-3)[GlcNAc(b1-6)]Gal(b1-4)GlcNAc
Outline: as §1

B1: CCL2 (Coprinopsis cinerea), B3GA02 (protein)
chain: MDSPAVTLSAGNYIIYNRVLSPRGEKLALTYPGRQRTPVTVSPLDGSSEQAWILRSYDSNSNTWTISPVGSPNSQIGWGAGNVPVVLPPNNYVWTLTLTSGGYNIQDGKRTVSWSLNNATAGEEVSIGADATFSGRWVIEKV
glycan array binding signal (z-score) [1]: -0.29
glycan array binding signal (z-score) [2]: -0.278
glycan array binding signal (z-score) [3]: -0.286
glycan array binding signal (z-score) [4]: -0.263
glycan array binding signal (z-score) [5]: -0.26
glycan array binding signal (z-score) [6]: -0.285
glycan array binding signal (z-score) [7]: -0.293
glycan array binding signal (z-score) [8]: -0.297
glycan array binding signal (z-score) [9]: -0.289
glycan array binding signal (z-score) [10]: -0.247
glycan array binding signal (z-score) [11]: -0.283
glycan array binding signal (z-score) [12]: -0.283
glycan array binding signal (z-score) [13]: -0.281
glycan array binding signal (z-score) [14]: -0.29
glycan array binding signal (z-score) [15]: -0.291
glycan array binding signal (z-score) [16]: 0.115
glycan array binding signal (z-score) [17]: -0.19
glycan array binding signal (z-score) [18]: -0.264
glycan array binding signal (z-score) [19]: 2.83
glycan array binding signal (z-score) [20]: -0.246
glycan array binding signal (z-score) [21]: -0.278
glycan array binding signal (z-score) [22]: -0.22
glycan array binding signal (z-score) [23]: -0.285
glycan array binding signal (z-score) [24]: -0.285
glycan array binding signal (z-score) [25]: -0.275
glycan array binding signal (z-score) [26]: -0.264
glycan array binding signal (z-score) [27]: -0.292
glycan array binding signal (z-score) [28]: -0.289
glycan array binding signal (z-score) [29]: -0.289
glycan array binding signal (z-score) [30]: -0.266
glycan array binding signal (z-score) [31]: -0.27
glycan array binding signal (z-score) [32]: -0.231
glycan array binding signal (z-score) [33]: -0.271
glycan array binding signal (z-score) [34]: -0.289
glycan array binding signal (z-score) [35]: -0.278
glycan array binding signal (z-score) [36]: -0.293
glycan array binding signal (z-score) [37]: -0.268
glycan array binding signal (z-score) [38]: -0.267
glycan array binding signal (z-score) [39]: -0.286
glycan array binding signal (z-score) [40]: -0.294
glycan array binding signal (z-score) [41]: -0.286
glycan array binding signal (z-score) [42]: 3.98
glycan array binding signal (z-score) [43]: -0.287
glycan array binding signal (z-score) [44]: -0.262
glycan array binding signal (z-score) [45]: -0.293
